Reference: the BET-seq Pho4 binding data (Le et al. 2018)
The list shows a part of the results. The energies were worked out here from pooled read counts, against the library average; single values are noisy.

target: T1, Pho4 (S. cerevisiae) (UniProt P07270); experiment: relative binding free energy (BET-seq); higher = weaker binding; settings: reference: library average
T1 sequence: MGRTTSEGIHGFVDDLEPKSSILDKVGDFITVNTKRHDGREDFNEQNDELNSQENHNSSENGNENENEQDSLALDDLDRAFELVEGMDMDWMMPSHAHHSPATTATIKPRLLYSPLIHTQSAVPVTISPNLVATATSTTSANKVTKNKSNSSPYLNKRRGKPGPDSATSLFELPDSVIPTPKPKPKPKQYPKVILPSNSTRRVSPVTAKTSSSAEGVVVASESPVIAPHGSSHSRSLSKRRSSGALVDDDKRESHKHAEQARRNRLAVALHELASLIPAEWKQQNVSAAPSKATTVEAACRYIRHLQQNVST

Row | Sequence | relative binding free energy [kcal/mol]
1 | CGTTACACGTGGTATT | -0.03
2 | TAGTTCACGTGGGGGG | 0.22
3 | ACTTGCACGTGTTCGT | 0.09
4 | TATTACACGTGCGGTG | -0.06
5 | ATGAGCACGTGAGATG | 0.17
6 | AGTTTCACGTGGCCGT | 0.25
7 | TGAGGCACGTGATGTG | -0.01
8 | AGGGACACGTGCTGTA | -0.13
9 | AGTTTCACGTGTGTAA | 0.33
10 | GCTGGCACGTGGGTGT | -0.16
11 | CTTGTCACGTGTGCTA | 0.16
12 | GCTGGCACGTGAGGGA | 0.18
13 | GGTGACACGTGATTGT | 0.28
14 | GGTTCCACGTGGGGAA | -0.16
15 | ATAGTCACGTGAGTGT | 0.3
16 | TTCGTCACGTGAAGGA | 0.24
17 | ATGAACACGTGTGTGA | -0.05
18 | AAGTGCACGTGAGGCG | 0.15
19 | GAAGGCACGTGCTGGG | -0.24
20 | GGATTCACGTGTTTTG | 0.51
21 | TCTGGCACGTGGTGTG | -0.19
22 | GGAGTCACGTGAAGTT | 0.42
23 | AGAATCACGTGAGGTA | 0.43

Row | Sequence | relative binding free energy [kcal/mol]
24 | GGAGACACGTGATGTT | 0.2
25 | AGGGGCACGTGAGAAA | 0.33
26 | TTGGGCACGTGCCGCT | -0.15
27 | TGTAGCACGTGGTGCT | -0.14
28 | AAGGGCACGTGAGTGA | 0.23
29 | GTTGTCACGTGTGACT | 0.3
30 | GATGTCACGTGATCGG | 0.21
31 | GGGTCCACGTGGGTCT | -0.15
32 | ATTCTCACGTGGGGTT | 0.02
33 | TAGTTCACGTGGCGAT | 0.21
34 | CTATTCACGTGGTGTT | 0.1
35 | GGAGGCACGTGTCAGG | -0.22
36 | GGAAGCACGTGGACGG | -0.12
37 | TGTGTCACGTGGTCTT | 0.07
38 | GGGGTCACGTGTATGC | 0.12
39 | GGCATCACGTGAGTTG | 0.38
40 | CGAATCACGTGGAGTG | 0.12
41 | GAAGGCACGTGTTATG | -0.11
42 | GGGGCCACGTGTGTGA | 0
43 | TGTGTCACGTGATCTG | 0.03
44 | GATTTCACGTGCGGTA | 0.37
45 | GGGTCCACGTGAGTAT | 0.17
46 | GCGCACACGTGGGGGT | -0.03

Row | Sequence | relative binding free energy [kcal/mol]
47 | TATTTCACGTGGCATT | 0.11
48 | CTGTCCACGTGGTAGT | -0.14
49 | TTTCTCACGTGGACGT | 0.2
50 | GTAAACACGTGTGTTG | 0.08
51 | TTAGGCACGTGTCCGG | -0.04
52 | TATTTCACGTGTGTTT | 0.29
53 | AGTTTCACGTGCTTAG | 0.09
54 | GAGTACACGTGGTGGG | 0.07
55 | TATTTCACGTGGCGTT | 0.2
56 | ATGGGCACGTGTAGAG | -0.06
57 | CGGATCACGTGGGAGG | -0.05
58 | TGTTTCACGTGGTATT | 0.16
59 | GCGGCCACGTGGGCGT | -0.17
60 | CAAGGCACGTGGTTGA | -0.06
61 | TAGTGCACGTGAGTGT | 0.19
62 | ACATGCACGTGGTTTA | 0.01
63 | GGCTACACGTGTGGGA | 0.18
64 | GGAGGCACGTGTAGTC | -0.09
65 | GGGAGCACGTGACTGG | -0.13
66 | GGGGGCACGTGAGAGT | 0.19
67 | TCAGGCACGTGAGAGG | 0.19
68 | GTCGTCACGTGGTCTG | 0.03
69 | TGGGACACGTGTTAAG | 0.06

Row | Sequence | relative binding free energy [kcal/mol]
70 | TTGCTCACGTGGACGG | 0.35
71 | TGAGGCACGTGTAAGT | 0.07
72 | TATATCACGTGAGTCG | 0.33
73 | GGACTCACGTGTGCGG | 0.28
74 | AGCGGCACGTGAGATG | 0.29
75 | GTGGACACGTGTGGGC | 0.08
76 | TGACTCACGTGTGGTG | 0.28
77 | CAGAGCACGTGGGGCT | -0.27
78 | GGAAGCACGTGAGTCG | 0.27
79 | GATTACACGTGTTTTG | 0.2
80 | GTCGGCACGTGTAGGT | 0.01
81 | GGGCGCACGTGAGGCT | 0.1
82 | TTACTCACGTGTGAGG | 0.21
83 | TCGTTCACGTGTAGCG | 0.26
84 | ACGGGCACGTGGGGGG | -0.22
85 | GAATACACGTGTGGGC | 0.11
86 | CGGGTCACGTGCTAGG | 0.04
87 | TGTCTCACGTGGATTA | 0.2
88 | TGGTGCACGTGCAAGA | 0.1
89 | TTTTTCACGTGAGAGA | 0.35
90 | ATAAACACGTGGTGGA | -0.08
91 | ATAGTCACGTGAGTGC | 0.38
92 | AAGATCACGTGAGGTG | 0.38

Row | Sequence | relative binding free energy [kcal/mol]
93 | GTTCCCACGTGGGTGT | -0.21
94 | CGTAACACGTGTATTT | 0.1
95 | TTTGACACGTGTGCCG | 0.14
96 | GTAGTCACGTGTGCGG | 0.12
97 | CGGCTCACGTGGAGTT | 0.18
98 | TATTTCACGTGAATAT | 0.22
99 | CGGCACACGTGTTGGG | 0.07
100 | TAAGTCACGTGAAAGA | 0.3
101 | TTTATCACGTGCGGGC | 0.11
102 | ATATGCACGTGGCAGG | -0.25
103 | GTCCTCACGTGTGTTG | 0.16
104 | GTAATCACGTGCTGTT | 0.12
105 | TATTACACGTGTGAGA | 0.27
106 | TGTGACACGTGAGCTG | 0.19
107 | CTTTGCACGTGGGAAT | -0.1
108 | AAGTACACGTGGGGCG | -0.11
109 | TGTTTCACGTGGTAGT | 0.31
110 | CATCACACGTGTGGGT | 0.26
111 | TCGACCACGTGTGGGG | -0.12
112 | GATTTCACGTGCGAGG | 0.29
113 | CGCGGCACGTGACGGT | 0.08
114 | GCTAGCACGTGGGGAT | -0.07
115 | AATGGCACGTGGGGTT | -0.13
